Experimental data reported in paper PMC4336329 (PLoS ONE, 2015).
Among all 310,000 compounds or so, about 14,000 (4.5%) showed an effect of 50% or more. Effects have a minus sign here. The list shows a part of the results.

biological target: human ether-à-go-go-related gene (hERG) potassium channel (human, UniProt Q12809); experiment: primary screen, population patch clamp on CHO cells stably expressing hERG
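Also: peak tail current of the secondary pulse compared with the same well before compound.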

Chain of human ether-à-go-go-related gene (hERG) potassium channel (Q12809 whole entry, looked up): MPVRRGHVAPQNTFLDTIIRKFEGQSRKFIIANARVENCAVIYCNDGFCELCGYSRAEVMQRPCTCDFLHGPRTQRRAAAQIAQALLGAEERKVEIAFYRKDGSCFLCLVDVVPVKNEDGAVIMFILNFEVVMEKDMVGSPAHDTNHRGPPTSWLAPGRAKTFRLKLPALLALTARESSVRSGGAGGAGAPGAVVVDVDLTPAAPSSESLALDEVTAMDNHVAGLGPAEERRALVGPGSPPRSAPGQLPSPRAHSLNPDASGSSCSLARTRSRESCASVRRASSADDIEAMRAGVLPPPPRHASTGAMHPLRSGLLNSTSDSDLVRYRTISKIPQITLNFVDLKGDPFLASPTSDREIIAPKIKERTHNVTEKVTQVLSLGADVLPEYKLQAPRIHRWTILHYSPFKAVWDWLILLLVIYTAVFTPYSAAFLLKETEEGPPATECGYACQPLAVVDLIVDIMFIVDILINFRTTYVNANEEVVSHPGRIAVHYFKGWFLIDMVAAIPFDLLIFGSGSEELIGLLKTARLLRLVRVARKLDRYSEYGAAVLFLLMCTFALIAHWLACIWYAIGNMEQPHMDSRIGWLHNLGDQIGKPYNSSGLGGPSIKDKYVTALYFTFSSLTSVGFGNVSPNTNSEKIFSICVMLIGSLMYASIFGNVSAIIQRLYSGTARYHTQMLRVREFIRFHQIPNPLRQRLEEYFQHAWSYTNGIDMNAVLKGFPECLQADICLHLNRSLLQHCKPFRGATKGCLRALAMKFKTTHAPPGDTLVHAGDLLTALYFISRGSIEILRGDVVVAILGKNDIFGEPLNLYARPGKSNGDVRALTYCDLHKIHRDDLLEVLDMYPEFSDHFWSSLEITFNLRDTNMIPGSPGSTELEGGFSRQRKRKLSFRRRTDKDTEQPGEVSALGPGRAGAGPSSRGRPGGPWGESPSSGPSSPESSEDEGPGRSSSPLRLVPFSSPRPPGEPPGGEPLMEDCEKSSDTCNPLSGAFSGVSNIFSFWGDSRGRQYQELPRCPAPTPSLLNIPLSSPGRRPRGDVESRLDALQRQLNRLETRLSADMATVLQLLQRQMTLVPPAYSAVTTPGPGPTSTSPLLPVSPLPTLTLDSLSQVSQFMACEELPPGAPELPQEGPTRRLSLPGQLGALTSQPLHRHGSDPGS

In order of falling “hERG current change (%, negative = inhibition) at 10uM” value:
1. CC(C)CNC(=O)CCCSc1nc2ccccc2[nH]1  22.4%
2. COc1ccc(NC(=O)CSc2nnc(-c3cc(C)[nH]n3)n2N)cc1  19.9%
3. COc1ccc(C(C[N+](=O)[O-])n2nc(C)cc2C)cc1 (stereo not drawn)  19.1%
4. O=C(CSc1nc2ccccc2s1)N/N=C/c1cc([N+](=O)[O-])ccc1O  18.5%
5. CCn1c(SCC(=O)Nc2c(C)n(C)n(-c3ccccc3)c2=O)nc2c1c(=O)n(C)c(=O)n2C  18.2%
6. CNC(=O)CS(=O)CC(=O)Nc1cc(OCCOC)c(Cl)cc1Cl (stereo not drawn)  17.2%
7. O=C(CSc1ncn[nH]1)c1ccco1  15.3%
8. N#CCC(=O)Nc1ccc(C(=O)OCC(=O)NCCCc2ccccc2)cc1  15.1%
9. CN(C)c1nc(-c2cccs2)cc(C(F)(F)F)c1C#N  14.7%
10. CCCn1c(SCC(=O)NC2CCCCC2)nnc1-c1cccnc1  13.2%
11. CSc1nc(-c2ccc(Cl)cc2)c(C#N)c(=O)[nH]1  13.1%
12. COc1ccc(CC(=O)OCCN(C)C)cc1.Cl  11.8%
13. COC(=O)c1ccccc1NC(=O)CN(c1c(C)cccc1C)S(C)(=O)=O  10.1%
14. OCC[C@H]1C[C@H](O)[C@@H](O)[C@@]2(CCCc3ccccc3O2)O1  8.31%
15. CCCCn1c(N)c(N(CC(C)C)C(=O)C2CCN(S(=O)(=O)c3ccc(C)cc3C)CC2)c(=O)[nH]c1=O  8.25%
16. Cc1cc(C)cc(N(CC(=O)NC2CCCC2)S(=O)(=O)c2c(C)[nH]c(=O)[nH]c2=O)c1  7.99%
17. CCCCN(C(=O)C1CC(=O)N(Cc2ccc(C)cc2)C1)c1c(N)n(CC(C)C)c(=O)[nH]c1=O (stereo not drawn)  7.76%
18. Cc1c(NS(=O)(=O)c2cccc(C(=O)NCc3ccc(Cl)cc3)c2)c(=O)n(-c2ccccc2)n1C  6.89%
19. CC(=O)Nc1ccc(OCc2ccc(S(=O)(=O)Cc3ccccc3)cc2)cc1  4.51%
20. C[C@@H]1CC=C[C@H]2[C@H]1C(=O)N(Cc1ccccc1)[C@H]2c1ccc(-c2cc3ccccc3s2)cc1F  4.46%
21. CCOc1ccc(S(=O)(=O)NCCC(=O)NCc2ccccn2)cc1  2.7%
22. O=c1[nH]c(CSc2nc3ccccc3s2)nc2ccccc12  2.6%
23. Cl.OCCNc1nc(-c2ccccc2)nc2ccccc12  2.57%
24. Cc1cc(OCCn2cncn2)ccc1[N+](=O)[O-]  2.55%
25. COc1ccc(Cc2nnc(NC(=O)C(C)(C)C)s2)cc1  1.21%
26. COc1ccc(S(=O)(=O)NCCCCNS(=O)(=O)c2ccc(OC)cc2)cc1  1.03%
27. N=c1occ(C(=O)c2cc(F)ccc2O)cc1C(=O)NC1CCCCC1  0.995%
28. COCCNC(=O)[C@@]1(C)C=C[C@@H](Cc2ccccc2)N1C(=O)c1ccccc1  0.626%
29. CCOC(=O)c1[nH]c(C)c(C(=O)NC2CCCCCC2)c1C  0.467%
30. Cc1nn(Cc2ccc(Cl)c(Cl)c2)c(C)c1NC(=O)c1cc(-c2ccco2)on1  0.359%
31. CCc1c(C)sc2nc(SCC(=O)Nc3cc(C)on3)n(CCOC)c(=O)c12  -0.236%
32. COc1ccc(/C=N/NC(=O)c2csc(-n3nc(C)cc3C(F)(F)F)n2)cc1  -4.34%
33. Cc1sc2nc(CN(C(=O)NCc3ccccc3)C3CCCC3)[nH]c(=O)c2c1C  -4.47%
34. NC(=O)C1CCN(S(=O)(=O)c2cccc(S(=O)(=O)N3CCCCC3)c2)CC1  -5.81%
35. Cc1cccc(NC(=O)c2ccc(-n3ccnc3)nc2)c1  -6.67%
36. CCCC(C)NC(=O)/C=C/c1cccc([N+](=O)[O-])c1 (stereo not drawn)  -7.16%
37. O=C(Nc1ccc(Cl)cc1)C1CC=CCC1C(=O)OCC(F)(F)C(F)F (stereo not drawn)  -8.23%
38. O=S(=O)(c1cc(Br)ccc1Br)N1CCCCCC1  -8.75%
39. O=[N+]([O-])c1ncn(C23CC4CC(CC(C4)C2)C3)n1  -8.76%
40. CN(CC(=O)Nc1cccc(F)c1)C(=O)CCSc1ccc(F)cc1  -9.23%
41. O=C(NCC1CCCO1)C(c1ccc(F)cc1)N(Cc1ccc(F)cc1)C(=O)Cn1nnc(-c2cccs2)n1 (stereo not drawn)  -10.9%
42. O=C(C1CCOCC1)N1CCCC(N2CCN(c3cccc(C(F)(F)F)c3)CC2)C1 (stereo not drawn)  -12.9%
43. Cc1cc(C(=O)CN2C(=O)NC3(CCCc4ccccc43)C2=O)c(C)n1C (stereo not drawn)  -13.5%
44. COc1ccc(C2CC(=O)C3=C(C2)Nc2ncnn2C3c2ccccc2C)cc1 (stereo not drawn)  -17.9%
45. CN(C)C(=O)CCc1nc(-c2ccc(C(C)(C)C)cc2)no1  -19%
46. CCn1c(CN2CCCCCC2=O)nnc1SCc1cnc(-c2ccccc2)s1  -19.3%
47. Cn1nc(C(=O)Nc2cccc(S(=O)(=O)N3CCOCC3)c2)c2ccccc2c1=O  -29.5%
48. N#Cc1ccsc1NC(=O)CN1CCN(S(=O)(=O)c2cc(Cl)ccc2Cl)CC1  -32%
49. COc1ccc(C)cc1NC(=O)CN1CCCN(S(=O)(=O)c2ccc(Br)cc2)CC1  -39.5%
50. OC(CNCCNc1ncccc1C(F)(F)F)Cn1ccc2ccccc21 (stereo not drawn)  -45.3%
51. Cc1cccc(NC(=S)NCC(c2ccccc2)N(C)C)c1 (stereo not drawn)  -46.4%
52. COC(=O)c1cc(S(=O)(=O)N2CCN(c3ccc([N+](=O)[O-])cc3)CC2)c[nH]1  -53.9%
53. c1ccc(-c2cn(-c3ccccc3)c3ncnc(NCCCN4CCOCC4)c23)cc1  -60.6%
54. CCN(CC)c1ccc(NC(=O)CN2CCN(CC(=O)Nc3ccc(F)cc3)CC2)cc1  -76.4%
